# Measurements as given in the supplement of paper PMC4604168 (melanoma cell lines).
# This is one part of the list. Repeats are few or missing, and single values can be far off.
# Legend:
# Test in all cases: cell count relative to DMSO control; melanoma cells; higher = more viable cells
# Settings in all cases: library dose: standard library concentration; 72 h
# G361 = system: G361
# IPC-298 = system: IPC-298
# IST-MEL1 = system: IST-MEL1
# LB2518-MEL = system: LB2518-MEL
# LOXIMVI = system: LOXIMVI
# MEL-HO = system: MEL-HO
# MZ2-MEL = system: MZ2-MEL
# MeWo = system: MeWo
# RPMI7951 = system: RPMI7951
# RVH-421 = system: RVH-421
# SkMel28 = system: SkMel28
# SkMel2 = system: SkMel2
# SkMel30 = system: SkMel30
# SkMel5 = system: SkMel5
# UACC257 = system: UACC257
# UACC62 = system: UACC62
# WM115 = system: WM115
# WM1716 = system: WM1716
# WM1745 = system: WM1745
# WM3526 = system: WM3526
# 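Further: cells treated in 1,536-well plates, then fixed and DAPI-stained, with nuclei counted from automated high-throughput microscope images.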
Structure (SMILES),cell count (G361) [%],cell count (IPC-298) [%],cell count (IST-MEL1) [%],cell count (LB2518-MEL) [%],cell count (LOXIMVI) [%],cell count (MEL-HO) [%],cell count (MZ2-MEL) [%],cell count (MeWo) [%],cell count (RPMI7951) [%],cell count (RVH-421) [%],cell count (SkMel28) [%],cell count (SkMel2) [%],cell count (SkMel30) [%],cell count (SkMel5) [%],cell count (UACC257) [%],cell count (UACC62) [%],cell count (WM115) [%],cell count (WM1716) [%],cell count (WM1745) [%],cell count (WM3526) [%]
"CN(c1ncccc1CNc1nc(Nc2ccc3c(c2)CC(=O)N3)ncc1C(F)(F)F)S(C)(=O)=O + N.N.[Cl][Pt][Cl] [cisplatin] (first compound 0.4 µM, partner dose 8 µM)",84.8,112,109,87.9,60.2,97,101,96.3,58.7,102,85.3,101,82.5,69.7,72.8,77,86.3,100,63.5,97.4
"COc1cc(Nc2ncc(F)c(Nc3ccc4c(n3)NC(=O)C(C)(C)O4)n2)cc(OC)c1OC [Tamatinib] + C/C(O)=C(\C#N)C(=O)Nc1cc(Br)ccc1Br [LFM-A13] (first compound 2 µM, partner dose 10 µM)",76,69,60.8,56.1,20.4,62.7,60.2,81.9,16.8,86.4,52.5,79.5,90,56.7,90.3,73.4,75.5,86.3,21.6,85.7
"C=CCNC1=C2C[C@@H](C)C[C@H](OC)[C@H](O)[C@@H](C)/C=C(\C)[C@H](OC(N)=O)[C@@H](OC)/C=C\C=C(/C)C(=O)NC(=CC1=O)C2=O [Tanespimycin] + C[As](C)SC[C@H](NC(=O)CC[C@H](N)C(=O)O)C(=O)NCC(=O)O [Darinaparsin] (first compound 0.01 µM, partner dose 2 µM)",51.6,80.5,47.3,56.5,87.3,70.3,88.8,41.9,13.5,47.8,44.4,74.7,78.2,34.6,77,52.4,22.7,54.5,57.2,49.8
"Cc1cn(-c2cc(NC(=O)c3ccc(C)c(Nc4nccc(-c5cccnc5)n4)c3)cc(C(F)(F)F)c2)cn1 [nilotinib] + C[C@]12O[C@H](C[C@]1(O)CO)n1c3ccccc3c3c4c(c5c6ccccc6n2c5c31)CNC4=O [Lestaurtinib] (first compound 1 µM, partner dose 0.02 µM)",62.4,66.4,100,55.3,112,82,84.7,65.4,63.4,65.9,68.4,88.2,74.3,50.6,100,68.1,69.6,98.3,57.4,50.1
"Cn1cncc1[C@@](N)(c1ccc(Cl)cc1)c1ccc2c(c1)c(-c1cccc(Cl)c1)cc(=O)n2C [tipifarnib] + O=C(Oc1ccc([N+](=O)[O-])cc1)N1CCC(C(O)(c2ccc3c(c2)OCO3)c2ccc3c(c2)OCO3)CC1 [JZL184] (first compound 0.05 µM, partner dose 5 µM)",99.6,91.1,96.5,87.5,54.5,102,100,111,71.4,100,74.4,81.3,86,66.5,98.9,64.6,66,77.9,95.3,87.3
"COc1cc([C@@H]2c3cc4c(cc3[C@@H](O[C@@H]3O[C@@H]5CO[C@@H](C)O[C@H]5[C@H](O)[C@H]3O)[C@H]3COC(=O)[C@H]23)OCO4)cc(OC)c1O [etoposide] + N.N.[Cl][Pt][Cl] [cisplatin] (first compound 0.1 µM, partner dose 8 µM)",75.7,72.8,88.8,95.9,55.4,81.8,67,76.7,81.8,202,60.6,60.5,68.4,74.7,70.5,44.8,56.4,71.5,79.2,71
"O=c1[nH]nc(Sc2ncc([N+](=O)[O-])s2)n1-c1ccc2c(c1)OCCO2 + Cn1cc(C2=C(c3cn(C4CCN(Cc5ccccn5)CC4)c4ccccc34)C(=O)NC2=O)c2ccccc21 [Enzastaurin] (first compound 1 µM, partner dose 4 µM)",94.3,114,106,122,101,95.6,127,112,72.2,56.9,112,116,104,97.8,99.9,68.1,117,77.8,92.7,122
"Cc1cn(-c2cc(NC(=O)c3ccc(C)c(Nc4nccc(-c5cccnc5)n4)c3)cc(C(F)(F)F)c2)cn1 [nilotinib] + N.N.[Cl][Pt][Cl] [cisplatin] (first compound 1 µM, partner dose 8 µM)",83.3,86.2,72.3,71.7,121,82.9,85.1,84.7,81.6,78.7,62.2,73.5,68.5,78.3,83.4,65.7,85.7,83.2,77.9,82
"CC(=O)c1c(C)c2cnc(Nc3ccc(N4CCNCC4)cn3)nc2n(C2CCCC2)c1=O [palbociclib] + C[As](C)SC[C@H](NC(=O)CC[C@H](N)C(=O)O)C(=O)NCC(=O)O [Darinaparsin] (first compound 0.2 µM, partner dose 2 µM)",75.2,75.1,85.7,65.9,103,81.4,74.3,62.8,65.5,82.5,51.6,83.5,79.8,46.1,68.4,68.7,58.1,41.1,71.3,41.6
